# In the supplement of paper PMC9446081:
# About 220 (0.56%) of roughly 39,000 compounds showed activity. The list shows a part of the results.
# System: Escherichia coli K-12 BW25113
# Assay: relative growth (OD600 normalised to plate interquartile mean) (fraction); higher = less growth inhibition, active = 0.2 or less
# Conditions: 50 µM; LB; incubation time: overnight (16-24 h)
# 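Further: static incubation at 37 °C against the wild-type strain, values averaged over two biological replicates.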
row,SMILES,relative growth
1,C[C@@H]1CN([C@H](C)CO)C(=O)c2cccc(NS(C)(=O)=O)c2O[C@H]1CN(C)C(=O)Nc1ccccc1,inactive: 0.985
2,C[C@H](CO)N1C[C@H](C)[C@H](CN(C)Cc2ccc(C(=O)Nc3ccccc3N)cc2)Oc2ccc(NC(=O)Nc3cccc4ccccc34)cc2C1=O,inactive: 1.01
3,CCCC#Cc1cnc2c(c1)C(=O)N([C@@H](C)CO)C[C@H](C)[C@H](CN(C)C(=O)c1ccc3c(c1)OCO3)O2,inactive: 1.02
4,COc1ccc(COC[C@]23N=C4SCc5ccccc5CN4[C@H](c4ccccc4O2)[C@H]3CO[Si](C)(C)C(C)(C)C)cc1,inactive: 1.02
5,COc1ccc(-c2ccc3c(c2)O[C@H](CN(C)CC2CCOCC2)[C@@H](C)CN([C@@H](C)CO)S3(=O)=O)cc1,inactive: 1.05
6,C[C@@H]1CCCCO[C@@H](CN(C)S(=O)(=O)c2ccc(F)cc2)[C@H](C)CN([C@H](C)CO)C(=O)c2cc(NS(=O)(=O)c3cn(C)cn3)ccc2O1,inactive: 1.01
7,C[C@@H]1CCCCO[C@@H](CN(C)C(=O)Cc2ccccc2)[C@@H](C)CN([C@@H](C)CO)C(=O)c2cc(NC(=O)Nc3ccc(F)cc3)ccc2O1,inactive: 1
8,O=[N+]([O-])c1ncn(Cc2ccccn2)n1,inactive: 0.926
9,C[C@H](CO)N1C[C@H](C)[C@H](CN(C)Cc2ccc(C(=O)Nc3ccccc3N)cc2)Oc2c(NS(=O)(=O)c3cn(C)cn3)cccc2C1=O,inactive: 1.01
10,C[C@@H]1CCCCO[C@@H](CN(C)Cc2ccc(C(=O)O)cc2)[C@H](C)CN([C@@H](C)CO)C(=O)c2cc(NC(=O)c3ccccc3)ccc2O1,inactive: 1.02
11,C[C@H](CO)N1C[C@H](C)[C@@H](CN(C)Cc2ccc(C(F)(F)F)cc2)Oc2ccc(NC(=O)Nc3ccc(F)cc3)cc2C1=O,inactive: 1.02
12,C[C@H]1CN([C@@H](C)CO)C(=O)Cc2cc(NC(=O)Cc3ccccc3)ccc2O[C@H]1CN(C)C(=O)Nc1ccc(C(F)(F)F)cc1,inactive: 1.01
13,CNC(=O)NCc1ccc2c(c1)OCO2,inactive: 1
14,C[C@H]1CN([C@@H](C)CO)C(=O)c2cccc(NC(=O)Nc3cccc4ccccc34)c2O[C@@H]1CN(C)C(=O)Nc1ccc2c(c1)OCO2,inactive: 0.994
15,C[C@H]1CN([C@@H](C)CO)C(=O)c2cc(Br)cnc2O[C@@H]1CN(C)Cc1cccc(C(=O)O)c1,inactive: 1
16,CN(C)CCc1c[nH]c2ccc(CC3COC(=O)N3)cc12 (centres undefined),inactive: 0.951
17,CCc1oc2ccccc2c1C(=O)c1cc(Br)c(O)c(Br)c1,inactive: 1.03
18,C[C@@H]1CN([C@H](C)CO)C(=O)c2cc(C#CCN(C)C)cnc2O[C@H]1CN(C)C(=O)c1ccc2c(c1)OCO2,inactive: 1.01
19,CCN(CC)[C@H]1CCS(=O)(=O)C1,inactive: 1
20,COCC(=O)N(C)C[C@H]1Oc2cc(C#Cc3cccnc3)ccc2S(=O)(=O)N([C@@H](C)CO)C[C@@H]1C,inactive: 0.99

row,SMILES,relative growth
1,Cc1ccc(S(=O)(=O)Nc2ccc3c(c2)C(=O)N([C@@H](C)CO)C[C@@H](C)[C@H](CN(C)CC2CCCCC2)OCCCC[C@@H](C)O3)cc1,inactive: 0.974
2,C[C@@H]1CN([C@@H](C)CO)C(=O)c2cc(C#CCN(C)C)cnc2O[C@H]1CN(C)S(=O)(=O)c1ccccc1,inactive: 0.992
3,CN1C(=O)c2cc(NC(=O)c3ccc(C(F)(F)F)cc3)ccc2OC[C@H]2O[C@H](CC(=O)NC3Cc4ccccc4C3)CC[C@@H]21,inactive: 1.04
4,COc1ccc(NC(=O)N(C)C[C@H]2OCCCC[C@@H](C)Oc3ccc(NC(=O)Cc4ccccc4)cc3C(=O)N([C@H](C)CO)C[C@@H]2C)cc1,inactive: 0.989
5,O/N=C/c1c(Cl)cccc1Cl,inactive: 0.971
6,C[C@@H]1CN([C@H](C)CO)C(=O)c2cc(NS(=O)(=O)c3cn(C)cn3)ccc2O[C@@H]1CN(C)C(=O)Nc1ccc2c(c1)OCO2,inactive: 0.995
7,C[C@H](CO)N1C[C@H](C)[C@@H](CN(C)C(=O)Nc2cccc(F)c2)OCc2ccccc2-c2ccccc2C1=O,inactive: 0.987
8,CC(C)OC[C@H]1Cn2c(nc3c2c(=O)n(C)c(=O)n3C)O1,inactive: 0.995
9,COc1ccc(CN(C)C[C@H]2OCCCC[C@H](C)Oc3ccc(NS(=O)(=O)c4ccc(F)cc4)cc3C(=O)N([C@@H](C)CO)C[C@@H]2C)cc1,inactive: 0.926
10,C[C@H](CO)N1C[C@H](C)[C@@H](CN(C)S(=O)(=O)c2ccc(F)cc2)Oc2c(NC(=O)Nc3cccc4ccccc34)cccc2C1=O,inactive: 0.969
11,Cc1ccc(S(=O)(=O)N(C)C[C@H]2OCCCC[C@H](C)Oc3ccc(NC(=O)Nc4ccc(C(F)(F)F)cc4)cc3C(=O)N([C@H](C)CO)C[C@@H]2C)cc1,inactive: 1.02
12,Cc1noc(C)c1NC(=O)Nc1ccc2c(c1)C(=O)N([C@@H](C)CO)C[C@H](C)[C@@H](CN(C)S(=O)(=O)c1ccc(Cl)cc1)OCCCC[C@@H](C)O2,inactive: 0.988
13,C[C@H]1CN([C@@H](C)CO)C(=O)c2cccc(NC(=O)c3cnccn3)c2O[C@@H]1CN(C)C(=O)NC1CCCCC1,inactive: 1
14,C[C@@H]1CN([C@@H](C)CO)C(=O)Cc2cc(NC(=O)Nc3ccc4c(c3)OCO4)ccc2O[C@@H]1CN(C)Cc1ccc(Cl)c(Cl)c1,inactive: 1.02
15,C[C@@H]1CN([C@H](C)CO)C(=O)c2cc(NC(=O)Nc3cccc4ccccc34)ccc2O[C@@H]1CN(C)C(=O)Nc1cccc2ccccc12,inactive: 1.04
16,C[C@H](CO)N1C[C@H](C)[C@@H](CN(C)Cc2ccc(C(F)(F)F)cc2)OCCCC[C@H](C)Oc2ccc(NC(=O)c3ccncc3)cc2C1=O,inactive: 0.899
17,C[C@H](CO)N1C[C@H](C)[C@H](CN(C)Cc2cccc3c2OCCCO3)OCc2ccccc2-c2ccccc2C1=O,inactive: 1.01
18,CCCC#Cc1ccc2c(c1)O[C@H](CN(C)Cc1ccc3c(c1)OCO3)[C@@H](C)CN([C@H](C)CO)S2(=O)=O,inactive: 1.03
19,COc1ccc(S(=O)(=O)N(C)C[C@H]2OCCCC[C@@H](C)Oc3ccc(NC(=O)C4CCCCC4)cc3C(=O)N([C@H](C)CO)C[C@@H]2C)cc1,inactive: 1.01
20,C[C@@H]1CN([C@H](C)CO)S(=O)(=O)c2ccc(/C=C/c3ccccc3)cc2O[C@@H]1CN(C)C(=O)Nc1cc(F)ccc1F,inactive: 0.997

row,SMILES,relative growth
1,COc1ccc(NC(=O)N(C)C[C@@H]2OCCCC[C@H](C)Oc3ccc(NC(=O)Nc4c(C)noc4C)cc3C(=O)N([C@@H](C)CO)C[C@H]2C)cc1,inactive: 1
2,CC(C)CC#Cc1cnc2c(c1)C(=O)N([C@H](C)CO)C[C@H](C)[C@@H](CN(C)S(=O)(=O)c1cn(C)cn1)O2,inactive: 0.982
3,C[C@@H]1CCCCO[C@@H](CN(C)Cc2ccc3c(c2)OCO3)[C@H](C)CN([C@H](C)CO)C(=O)c2cc(NC(=O)Nc3cccc4ccccc34)ccc2O1,inactive: 1.01
4,Cc1ccc(S(=O)(=O)N(C)C[C@H]2Oc3cc(Br)ccc3S(=O)(=O)N([C@H](C)CO)C[C@@H]2C)cc1,inactive: 1.02
5,C[C@@H]1CCCCO[C@H](CN(C)Cc2ccc(Cl)c(Cl)c2)[C@@H](C)CN([C@H](C)CO)C(=O)c2cc(NC(=O)NC3CCCCC3)ccc2O1,inactive: 0.991
6,COc1ccc(NC(=O)N(C)C[C@@H]2Oc3ncc(C#CC(C)C)cc3C(=O)N([C@H](C)CO)C[C@H]2C)cc1,inactive: 0.985
7,C[C@H](O)C#Cc1ccc2c(c1)O[C@H](CN(C)C(=O)CN(C)C)[C@H](C)CN([C@@H](C)CO)S2(=O)=O,inactive: 1.01
8,COCC(=O)N1C[C@H](C)[C@@H](OC)CN(C)C(=O)c2ccc(NC(=O)Nc3ccccc3)cc2OC[C@@H]1C,inactive: 1.03
9,C[C@H]1CN([C@@H](C)CO)C(=O)c2cc(NC(=O)Cn3cnnn3)ccc2O[C@H]1CN(C)S(=O)(=O)c1ccc(F)cc1,inactive: 1.01
10,COC[C@H](C)N1C[C@H](C)[C@@H](CN(C)Cc2ccc(Oc3ccccc3)cc2)Oc2c(NC(=O)c3ccncc3)cccc2C1=O,inactive: 1
11,O=C(C[C@@H]1C=C[C@@H](NC(=O)c2cccnc2)[C@H](CO)O1)NCc1ccncn1,inactive: 0.977
12,C[C@@H]1[C@@H]([Si](C)(C)F)[C@H](CC(=O)N(CCO)Cc2ccccc2)O[C@@]12C(=O)N(c1ccccc1)c1ccccc12,inactive: 0.961
13,CS(=O)(=O)N1[C@@H]2Cn3c(cccc3=O)[C@H]1[C@@H](C(=O)NCc1ccccc1)[C@@H]2CO,inactive: 1
14,C[C@@H]1O[C@@H](O[C@@H]2[C@@H](O)[C@H](C)O[C@@H](OC[C@H]3O[C@@H](Oc4c(-c5ccc(O)c(O)c5)oc5cc(O)cc(O)c5c4=O)[C@@H](O)[C@@H](O)[C@@H]3O)[C@@H]2O)[C@H](O)[C@H](O)[C@H]1O,inactive: 1
15,C[C@H](CO)N1C[C@H](C)[C@H](CN(C)CC2CC2)Oc2c(NS(=O)(=O)c3ccccc3)cccc2C1=O,inactive: 1.01
16,C[C@@H]1CCCCO[C@H](CN(C)C(=O)c2ccncc2)[C@@H](C)CN([C@H](C)CO)C(=O)c2cc(NC(=O)CCCCCC(=O)Nc3ccccc3N)ccc2O1,inactive: 0.986
17,CCOC(=O)n1ncc(C#N)c1N,inactive: 0.988
18,O=C(C[C@H]1CC[C@@H]2[C@H](COC[C@H](O)CN2C(=O)c2ccc(F)cc2)O1)NCCCN1CCOCC1,inactive: 0.968
19,CN(C)CC(=O)N[C@H]1CC[C@@H](CCn2cc(CN(C)C)nn2)O[C@@H]1CO,inactive: 0.955
